# Experimental data as given in the supplement of paper PMC3334620.
# Whole data set: some 33,000 sequences, median “E-score (-0.5 to 0.5)” near -0.035, cut for the highest 2% near 0.34. Some of the results follow.
# Biological target: T1, Mot3 (UniProt P54785)
# T1 sequence: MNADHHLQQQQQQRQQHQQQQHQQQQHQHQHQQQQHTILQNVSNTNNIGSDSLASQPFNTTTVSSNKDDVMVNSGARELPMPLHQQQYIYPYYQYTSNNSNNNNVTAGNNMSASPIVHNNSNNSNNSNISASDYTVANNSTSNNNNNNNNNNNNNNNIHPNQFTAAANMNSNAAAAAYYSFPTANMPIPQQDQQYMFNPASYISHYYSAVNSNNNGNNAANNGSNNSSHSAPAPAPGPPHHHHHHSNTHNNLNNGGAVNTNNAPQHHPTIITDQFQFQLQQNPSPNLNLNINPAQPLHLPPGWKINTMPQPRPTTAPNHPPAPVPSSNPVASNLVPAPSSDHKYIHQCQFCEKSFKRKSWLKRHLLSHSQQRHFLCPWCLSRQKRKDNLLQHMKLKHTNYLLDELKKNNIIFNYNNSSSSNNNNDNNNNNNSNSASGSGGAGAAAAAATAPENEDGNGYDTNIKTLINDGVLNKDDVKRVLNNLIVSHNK
# Test: PBM E-score (8-mer binding enrichment) (E-score (-0.5 to 0.5)); higher = stronger / more preferred TF binding; most listed sequences are background and not binding sites
# Settings: protein concentration: 200 nM; construct: GST-full length
# In short: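 Universal all-10-mer Agilent arrays, fresh or stripped once, were converted to double-stranded form by primer extension. GST-tagged yeast transcription factors from PURExpress in vitro transcription/translation, full-length or DNA-binding domain only, were applied at about 100-200 nM and detected with fluorescent anti-GST. After masliner normalisation, the Universal PBM Analysis Suite scored each ungapped eight-base word together with its reverse complement by E-score.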
row,Sequence,PBM E-score
1,CGGGCTCA,-0.352
2,AAGCATCC,-0.202
3,TCACGGAA,-0.00332
4,AGCCGCCA,-0.291
5,CAATGCAA,0.153
6,GTACCTTA,0.355
7,GCCTAACA,0.287
8,ATTGGAAA,-0.0614
9,AGTAAAAT,0.104
10,TATCAATA,0.134
11,AACCACAC,0.113
12,CTGACAGA,-0.103
13,CGGAGACC,-0.163
14,CCTACAAA,0.142
15,GCACCACC,-0.0765
16,ATGTCCCG,-0.131
17,CACTGGCG,0.0533
18,GGGCCTAC,0.0324
19,CAATACAC,0.331
20,ACCCGAGA,-0.258
21,AGACCCGG,-0.237
22,CGGTGAGA,-0.261
23,ACTGTGCT,-0.0778
24,AGGCGATA,-0.0912
25,GTGTTACA,0.326

row,Sequence,PBM E-score
1,AAACGCTA,-0.0463
2,GACGACAA,-0.0376
3,CGTCAGAG,-0.0365
4,GCCGTAGC,-0.166
5,GGGGCGAC,-0.263
6,TCCTGCAA,0.15
7,CGTACGCA,0.00657
8,CGACATAG,0.0157
9,TGGCATAA,0.0838
10,AAAAATTG,0.192
11,AAAGGACG,0.089
12,CTGGAGAC,-0.134
13,TGACTGCA,0.0356
14,CAAATAAC,0.143
15,AATCAACT,0.141
16,TAGAAGAA,0.0576
17,CCGAAGTA,0.0211
18,AGTTTTAT,0.0234
19,CGCCATAC,-0.104
20,CAATGCCA,-0.113
21,CGTTCTTA,0.0238
22,ACATCGCC,0.0886
23,AACCATTC,-0.0709
24,GATAGTAA,-0.0741
25,GTCAAAAC,0.0484

row,Sequence,PBM E-score
1,TATGTACA,0.353
2,AAAGCCAC,-0.0399
3,AGGCCCGC,0.0393
4,CACATCGC,0.0781
5,AAAACGTC,0.106
6,GTGAGCTA,-0.0469
7,CCCACTAG,-0.336
8,ATATAAAG,0.0757
9,GGCGCATA,-0.113
10,TGCATCAA,0.105
11,TGGCCTAA,0.0826
12,AACCGTCT,0.0418
13,ATCATCCA,-0.0672
14,CATGAGAC,0.0987
15,CTCTGAAG,-0.132
16,CAAGACCG,-0.0613
17,ACTGCCTC,-0.176
18,GCAGTACC,0.0693
19,CAGGGCAC,0.332
20,AAGCGACG,-0.15
21,AACTCAAA,0.117
22,ATCTGTAG,-0.02
23,GCCACAGC,-0.265
24,TACACGGA,0.357
25,TCAGATGA,-0.156

row,Sequence,PBM E-score
1,GTAGGTGA,0.0361
2,CGTAAGCC,-0.146
3,AGGGGCCA,-0.281
4,CGATGGCC,-0.268
5,CTCGACTA,-0.143
6,AGTAATAG,0.201
7,GCGCTCTA,-0.268
8,TAACGCGA,0.25
9,CCGGTAAG,0.0758
10,TGACGAAA,0.0928
11,CTGTACAA,0.196
12,TACGGAGA,0.0248
13,GATCGCGA,-0.187
14,AGATTGTA,0.0155
15,AAAAAGCC,0.109
16,TATCTAAA,0.112
17,ATGGGGAG,-0.135
18,GGTTTCGA,-0.257
19,ACTAGCCC,-0.047
20,AGAGGCAG,-0.133
21,AATAGTGA,0.0314
22,AGCACGTG,0.199
23,AGGGAGTG,-0.142
24,TCATCGCA,-0.0756
25,GCTAGTAC,0.00779

row,Sequence,PBM E-score
1,CCAGGAAG,-0.078
2,AACTGTAT,0.0258
3,CCTCATAG,-0.0565
4,CAGAGTAA,0.128
5,ACGGGAAG,-0.16
6,GTTCCTTA,0.428
7,CAGAGATA,0.0644
8,CTGGCTCC,0.0141
9,AGAGCCTC,-0.422
10,CGGCTACC,-0.183
11,AATGCGTC,-0.0642
12,ACAGCCAT,0.172
13,AAGAAAGC,0.201
14,AACTCCGT,0.0245
15,AATGGGGG,-0.21
16,AGTTCGAT,-0.024
17,AACGAAAT,0.00166
18,AAGGGACC,-0.343
19,TATCCTCA,-0.237
20,AGGCAACT,0.484
21,AGAATGGC,-0.0939
22,GCGGGTAC,-0.0259
23,ACGGTAAG,-0.091
24,CAACCGAA,0.0641
25,ACAACACA,0.337

row,Sequence,PBM E-score
1,GGATAAAC,0.0805
2,AAACTAGC,-0.11
3,GGTTACAA,0.186
4,AATACATA,0.329
5,AACGGGCG,-0.0705
6,AACCTGCA,0.0857
7,AAAGCACA,0.201
8,AAGAAATC,0.00616
9,GAGAATAA,-0.0315
10,CGCAGGTC,0.0458
11,CCCCGTGA,-0.261
12,AGAGCGAA,-0.154
13,GCTCATGA,-0.182
14,GAGGGGTA,-0.211
15,CATTAGAC,-0.271
16,ATACGCCG,-0.0406
17,ATACCTAA,0.071
18,TATAAATA,0.155
19,GGGTTTAC,0.128
20,AGTGCCAA,-0.0129
21,GGATGGCC,-0.279
22,CTGAGACC,-0.0491
23,GATCTCAA,-0.00924
24,ACTGGCAC,-0.21
25,AGCGAGTA,0.115

row,Sequence,PBM E-score
1,CCTAGAAC,-0.0307
2,AAAACCAG,-0.0387
3,ATGGAATA,-0.0532
4,CCTATCTA,0.0646
5,AATACCCC,-0.248
6,ATTTGATC,-0.242
7,CGCCTCAG,-0.208
8,GATTGGAC,-0.0906
9,ATCCGTCG,-0.153
10,TAATCCCA,0.0453
11,ACCCATTG,-0.196
12,ACGTTGCC,0.323
13,GCAACCAC,-0.0253
14,CTGGTCTC,-0.241
15,GAACTGAC,-0.0216
16,AGTTGGAG,-0.276
17,CCACTAAA,-0.107
18,ACAACGCA,0.209
19,AATATCTC,-0.157
20,ACTCATTA,0.0966
21,ACAGAGCA,0.115
22,GTCCTCGA,-0.0132
